Data as given in PubChem BioAssay AID588855 (National Center for Advancing Translational Sciences (NCATS), 2011).
The whole screen tested about 410,000 compounds, of which about 5,000 (1.2%) were called active. The inconclusive results got no clear call from the source; some entries with a clear call stand among them for comparison. Calls follow the shape of the dose curve; as a rule, active = well fitted inhibition curve with a large enough effect; inconclusive = small, poorly fitted or top-dose-only effect; inactive = no such curve, though single readings can be large or run the other way. A potency beside an inconclusive call is a rough fit, not a confirmed value.

test: qHTS for Inhibitors of TGF-b; details: HepG2 CAGA-GFP TGF-b/SMAD3 reporter, GFP fluorescence, 18 h, TGF-beta stimulated, 500 pg/mL final; series mostly up to 46.1 µM; activity, negative = inhibition: at the top concentration; also: nearly all actives have a fitted effect of over 65% in size
Summary of the method: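 TGF-beta reporter screen: HEPG2 CAGA-GFP, 1% FBS, 500 pg/mL TGF-beta final, 18 h; per-cell GFP summed per well; curves fitted and categorized by class.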
% is scaled to controls: 0 for no effect and ±100 for the full control effect; potency is read from the fitted curve at half-maximal effect; tags tell the direction and shape of the fitted curve.

SMILES	Potency	activity, negative = inhibition
CCC(C(=O)Nc1cc(F)ccc1F)n1nc(-c2cc(C)ccc2C)ccc1=O (centres undefined)	inconclusive: 15.8 µM [inhibitor, partial curve, poor fit]	–
COc1cc(C(=S)N2CCOCC2)cc(OC)c1OC(=O)c1ccc(C)cc1	–	inactive: -6.92%
CCCN(CCC)S(=O)(=O)c1ccc(C(=O)Nc2nnc(COC)o2)cc1	inconclusive: 2.51 µM [inhibitor, partial curve, poor fit]	–
CCCCCCCCC(=O)N/N=C/c1ccccn1	inconclusive: 35.5 µM [inhibitor, single point]	–
CCN(C(=O)c1ccc2c(c1)OCO2)C12CC3CC(CC(C3)C1)C2	inconclusive: 35.5 µM [inhibitor, single point]	–
O=c1ccn(Cc2ccccc2)c2ccccc12	inconclusive: 35.5 µM [inhibitor, partial curve, poor fit]	–
O=C(CCS(=O)(=O)c1cc(Br)cc2c1N(C(=O)C1CC1)CC2)NCc1ccccc1Cl	–	inactive: -3.12%
O=C1CSC(=S)N1N=Cc1ccc(Cl)cc1Cl	–	inactive: 1.28%
C[C@H]1CN(S(=O)C(C)(C)C)[C@@H](CCO)/C1=C\CCO (some centres undefined)	–	inactive: 0.366%
CC(C)C1OC2c3cccc4cccc(c34)C2N1c1ccccc1 (centres undefined)	inconclusive: 10 µM [inhibitor, single point]	–
O=C(COC(=O)C12CC3CC(CC(O)(C3)C1)C2)Nc1cccc(Br)c1	–	inactive: 0%
O=S(=O)(c1ccc(F)cc1)N(Cc1nc(-c2ccc(Cl)cc2)no1)C1CCCCC1	–	inactive: -5.64%
O=[N+]([O-])c1ccc(N2CCN(C(=S)Nc3cccc(F)c3)CC2)cc1	inconclusive: 17.8 µM [inhibitor, partial curve, poor fit]	–
O=C(c1cc(-c2cccs2)nc2ccccc12)N1CCN(S(=O)(=O)c2ccccc2)CC1	–	inactive: -4.83%
COc1ccc(NC(=O)c2c(NCc3sccc3C)sc3c2CCCCC3)c(OC)c1	inconclusive: 10 µM [inhibitor, partial curve]	–
COc1ccc(C)cc1NC(=O)Cn1c(=O)ccc2cc(S(=O)(=O)N3CCC(C)CC3)ccc21	inconclusive: 7.94 µM [inhibitor, partial curve]	–
CCOc1ccc(CCNC(=O)c2ccc(CS(=O)Cc3cccc(Cl)c3)o2)cc1 (centres undefined)	inconclusive: 35.5 µM [inhibitor, single point]	–
Cc1c(N=Cc2ccncc2)c(=O)n(-c2ccccc2)n1C	–	inactive: -0.413%
O=C(NCc1ccccc1)N(Cc1cc2cc3c(cc2[nH]c1=O)OCCO3)CC1CCCO1 (centres undefined)	inconclusive: 11.2 µM [inhibitor, single point]	–
CS(=O)(=O)c1ccc2nc(NC(=O)Nc3ccccc3F)sc2c1	–	inactive: 4.18%
CCN(C(=O)c1ccc2c(OC)n(CC)nc2c1)c1ccc(OC)cc1	inconclusive: 0.112 µM [inhibitor, full curve, poor fit]	–
O=C(NCc1cccnc1)/C(=C\c1ccc(-c2cccc(Cl)c2)o1)S(=O)(=O)c1ccccc1	active: 15.8 µM	–

SMILES	Potency	activity, negative = inhibition
Cc1cccc(N2CC(C(=O)Nc3cccc(S(=O)(=O)N4CCCCC4)c3)CC2=O)c1C (centres undefined)	inconclusive: 22.4 µM [inhibitor, single point]	–
O=C(Nc1ccc(Nc2ccccc2)cc1)Nc1ccccc1Cl	inconclusive: 35.5 µM [inhibitor, single point]	–
CCN(CCCNC(=O)CSc1cc(=O)n(CC)c2ccccc12)c1cccc(C)c1	inconclusive: 14.1 µM [inhibitor, partial curve, poor fit]	–
CCOC(=O)C(C(=O)OCC)C(Nc1ccc(Br)cc1)c1ccccc1 (centres undefined)	inconclusive: 22.4 µM [inhibitor, partial curve, poor fit]	–
CC(Sc1cn(CCNC(=O)c2ccccc2F)c2ccccc12)c1ccccc1 (centres undefined)	inconclusive: 7.08 µM [inhibitor, full curve]	–
Nc1c(C(=O)NC2CC2)c2nc3ccccc3nc2n1-c1ccc2c(c1)OCO2	inconclusive: 5.62 µM [inhibitor, single point]	–
CC1CCCN(C(=O)c2sc3cc([N+](=O)[O-])ccc3c2Cl)C1 (centres undefined)	inconclusive: 22.4 µM [inhibitor, single point]	–
CCCc1c(-c2ccc(O)cc2)nn(-c2ccc(O)cc2)c1-c1ccc(O)cc1	–	inactive: -2.41%
Cc1ccc(C)c(OCC(=O)Nc2ccc(S(=O)(=O)Nc3onc(C)c3C)cc2)c1C	–	inactive: -16.6%
CC1=C(c2ccc(C)c(C)c2)S(=O)(=O)N(Cc2ccc(C(=O)NC(C)c3ccccc3)cc2)C1=O (centres undefined)	–	inactive: 2.82%
O=C(COC(=O)c1c2ccccc2cc2ccccc12)NCC(F)(F)F	inconclusive: 17.8 µM [inhibitor, single point]	–
CCOc1ccc(Oc2ccc(NC(=O)CSc3nncn3C)cc2)cc1	–	inactive: 1.02%
C=CCn1c(SCC(N)=O)nc2ccccc2c1=O	–	inactive: -4.89%
COc1ccc(-c2cc(C(F)F)n3ncc(C(=O)N4CCSCC4)c3n2)cc1	inconclusive: 4.47 µM [inhibitor, full curve, poor fit]	–
CC(C)(C)OC(=O)NCCCCCc1cn([C@@H](CO)C(=O)NCCCCCCCCCCC(=O)N2CCN(C(=O)OC(C)(C)C)CC2)nn1	inconclusive: 11.2 µM [inhibitor, partial curve, poor fit]	–
O=C1NC(=S)N(c2cccc(Cl)c2)C12CCCCC2	–	inactive: -24.6%
C=CCOc1ccc(/C=C/C(=O)OCC(=O)N(C)CC(=O)Nc2ccccc2Cl)cc1	inconclusive: 3.55 µM [inhibitor, single point]	–
O=C(C[n+]1ccc2ccccc2c1)c1cccc2ccccc12	inconclusive: 35.5 µM [inhibitor, single point]	–
CSC(=CC(=O)c1ccc(F)cc1)SC	inconclusive: 6.31 µM [inhibitor, single point]	–
CC(=O)Nc1ccc(NC(=O)COC(=O)c2c3c(nc4ccccc24)CCN(Cc2ccccc2)C3)cc1	–	inactive: -23.5%
Cc1cc(C)cc(C(=O)NCC(=O)N2CCN(c3cccc(Cl)c3)CC2)c1	inconclusive: 20 µM [inhibitor, single point]	–
CCCC(=O)Nc1ccccc1-c1nnn(CC(=O)Nc2ccc(OC)cc2)n1	–	inactive: 4.52%
